Source: PubChem BioAssay AID1671193 (National Center for Advancing Translational Sciences (NCATS), 2021)
Screen size: about 150,000 compounds; about 180 (0.12%) were called active. The shares of active, inactive and inconclusive entries below differ from those in the screen. Calls follow the shape of the dose curve; as a rule, active = well fitted cell-killing curve with a large enough effect; inconclusive = small, poorly fitted or top-dose-only effect, or effect the other way; inactive = flat fitted curve, though single readings scatter. Where the call is inconclusive, the potency comes from a doubtful curve fit.

Assay: GF-AFC viability counterscreen for inhibitors of alpha-synuclein gene (SNCA) expression; also: nearly all actives have a fitted effect of over 30% in size;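 as to activity change, negative = cytotoxicity: 0% = DMSO-treated cells and -100% = medium-only wells without cells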
Conditions: HEK-293-SNCA-luc viability, GF-AFC fluorescence, 24 h; activity change, negative = cytotoxicity: at 57.1 µM (top of the series) unless noted
How it was run: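 HEK-293-SNCA-luc cells (1500/well) plated 24 h, then exposed 24 h to a dilution series; GF-AFC added 30 min at 37C, fluorescence 405/540 nm; normalised to medium-only and DMSO wells, Hill fit.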
Potency is read from the fitted curve at half-maximal effect; tags tell the direction and shape of the fitted curve.

SMILES | Potency | activity change, negative = cytotoxicity
CC1CCC2(CC1)NC(=O)N(CC(=O)Nc1cc(F)cc(F)c1)C2=O (centres undefined) | inconclusive: 3.16 µM [cytotoxic, full curve, poor fit] | –
COC1CC(O[C@H]2CC[C@@]3(C)C(CCC4C3[C@H](OC(C)=O)[C@@H](OC(=O)/C=C/c3ccccc3)[C@]3(C)C(C(C)=O)CC[C@]43O)C2)OC(C)C1OC1CC(OC)C(OC2CC(OC)C(OC3OC(C)C(OC4OC(CO)C(O)C(O)C4O)C(OC)C3O)C(C)O2)C(C)O1 (some centres undefined) | inconclusive: 5.66 µM [cytotoxic, single point] | –
O=C(Cc1ccccc1)N1CCC(Oc2cnc3c(ccn3-c3cncnc3)c2)CC1 | inconclusive: 39.8 µM [cytotoxic, single point] | –
COc1cc(Nc2ccc3nnc(-c4ccccn4)n3n2)cc(OC)c1OC | inconclusive: 35.5 µM [cytotoxic, partial curve, poor fit] | –
Cc1cccc2nc(-c3ccccn3)c(Nc3ccccc3)n12 | inconclusive: 39.8 µM [cytotoxic, single point] | –
CC(C)C1=NOC2(CCN(C(=O)c3ccc4c(c3)OCO4)C2)C1 (centres undefined) | inactive | –
COCCNc1cc(-c2cccc(C(F)(F)F)c2)nc2c(C)noc12 | inconclusive: 2.51 µM [cytotoxic, full curve, poor fit] | –
CC(C)n1nc(-c2cc3cc(O)ccc3[nH]2)c2c(N)ncnc21 | inconclusive: 0.752 µM [cytotoxic, full curve] | –
COc1ccc(OC)c(NC(=O)c2nc(S(=O)(=O)Cc3ccc(F)cc3)ncc2Cl)c1 | inconclusive: 31.6 µM [cytotoxic, single point] | –
COc1ccc(CN2C[C@H]3CN(Cc4cccnc4)CCN3C2=O)cc1 | inactive | –
COC(=O)CNC(=O)C1CCN(C(=O)C2CN(c3cccc(OC)c3)C(=O)N2)C1 (centres undefined) | inconclusive: 3.55 µM [rising, single point] | –
COCCn1c(=O)c(-c2cccc(C#N)c2)nc2cnc(N3CCNCC3)nc21 | inconclusive: 22.4 µM [rising, partial curve, poor fit] | –
O=C(NCCc1ccccc1)C1(CCO)CCN(c2ncccn2)C1 (centres undefined) | inconclusive: 5.62 µM [cytotoxic, full curve, poor fit] | –
CCN1CCN(CCCNC(=O)Cn2c(-c3cccs3)cc3cc(Cl)ccc32)CC1 | inconclusive: 39.8 µM [cytotoxic, single point] | –
CC1CCC(NC(=O)c2ccc(CSc3nc4ccncc4n3Cc3ccc(F)cc3)cc2)CC1 (centres undefined) | inconclusive: 39.8 µM [cytotoxic, single point] | –
O=C1Nc2ccc(-c3cccc(C(F)(F)F)c3)cc2C(=O)N2CCN(C(=O)c3ccccc3)C[C@H]12 | inconclusive: 35.5 µM [cytotoxic, single point] | –
O=c1[nH]c(=O)n([C@H]2C[C@@H](O)[C@@H](CO)O2)cc1I | inactive | –
COc1ccc(-c2noc(CC3CCN(C(=O)CCc4cccc(OC)c4)CC3)n2)cc1 | inconclusive: 39.8 µM [cytotoxic, single point] | –
Cc1cccc2c1nc1n2[C@@H](CNS(=O)(=O)c2ccccc2)COC1 | inconclusive: 31.6 µM [cytotoxic, single point] | –
CC(NC(=O)Cc1ccc(N(Cc2cccc(F)c2)C(=O)c2ccco2)cc1)c1ccccc1 (centres undefined) | inconclusive: 3.16 µM [cytotoxic, single point] | –

SMILES | Potency | activity change, negative = cytotoxicity
CN1Cc2cccn2CC1CNC(=O)c1nccn1C (centres undefined) | inactive | –
C[C@@H]1C(=O)O[C@H]2[C@H]1CC[C@@]1(C)Cc3sc(NCCc4ccccn4)nc3[C@@H](C)[C@H]21 | inactive | –
O=C(COc1ccc(F)cc1)N1CC2CC(C1)[C@H]1CCCC(=O)N1C2 (some centres undefined) | inconclusive: 28.2 µM [cytotoxic, single point] | –
CCN(CC)S(=O)(=O)c1ccc(OC)c(NC(=O)c2sc3ccccc3c2Cl)c1 | inconclusive: 0.447 µM [cytotoxic, full curve, poor fit] | –
CCC(C)S(=O)(=O)c1oc(-c2cccs2)nc1S(=O)(=O)c1ccccc1 (centres undefined) | active: 2.82 µM | –
Cc1cccc(N2CCN(C(=O)C3CCN(C(=O)c4cc5sccc5n4C)CC3)CC2C)c1 (centres undefined) | inconclusive: 39.8 µM [cytotoxic, single point] | –
CN1C(C(=O)Nc2cccc(O)c2)=CC(c2cccs2)=NS1(=O)=O | inconclusive: 28.2 µM [cytotoxic, partial curve, poor fit] | –
COc1cc2c(cc1OC)[C@@H]1[C@H](O)[C@@H](OC)C=C3CCN(C2)[C@H]31 | inconclusive: 10.4 µM [cytotoxic, partial curve, poor fit] | –
CC(C)c1nc2c(c(-c3ccc(O)cc3)n1)CN(C(=O)Nc1ccc(Cl)cc1)CC2 | inconclusive: 7.08 µM [cytotoxic, partial curve, poor fit] | –
Cn1cc(-c2cccc(O)c2)c2nc(COc3ccc(Cl)cc3)cn2c1=O | inconclusive: 31.6 µM [cytotoxic, single point] | –
CCOCc1cc(CN2CCN(c3cccc(C(F)(F)F)c3)CC2)c(O)c2ncccc12 | inconclusive: 39.8 µM [cytotoxic, single point] | –
CCC(=O)N1CCCCCCNC(=O)CC1c1ccccc1 (centres undefined) | inactive | –
COCCNc1ncc(-c2ccc(OC)cc2)c2c1OCC2 | inactive | –
COc1ccc(-c2nc3cnc(N(C)C)nc3n(CCC#N)c2=O)cc1 | inconclusive: 7.08 µM [rising, partial curve] | –
COC1CN(c2ccc(C)cc2)C12CCN(C(=O)Cc1cccc(F)c1)CC2 (centres undefined) | inconclusive: 7.08 µM [cytotoxic, single point] | –
CCCCNCc1ccc(OCC(O)CN2CCSCC2)c(OC)c1 (centres undefined) | inconclusive: 22.4 µM [cytotoxic, partial curve, poor fit] | –
CCc1nc2ccc(C(=O)N3CCN(c4cc(Cl)ccc4C)CC3)cc2nc1CC | inconclusive: 35.5 µM [cytotoxic, single point] | –
COc1ccc(-c2cnc([C@@H]3COCCN3Cc3cn(C)c4ccccc34)[nH]2)cc1 | inconclusive: 56.2 µM [cytotoxic, single point] | –
Cc1cn2c(-c3cn[nH]c3)cnc2c(Nc2ccc(C(=O)N3CCNCC3)cc2F)n1 | inconclusive: 11.9 µM [cytotoxic, partial curve, poor fit] | –
CN(C)S(=O)(=O)N1CCCC1c1nncn1C1CCCC1 (centres undefined) | inconclusive: 10 µM [cytotoxic, partial curve] | –

SMILES | Potency | activity change, negative = cytotoxicity
CCOc1ccc(CNC(=O)c2ccc3c(c2)c(C)c(C)n3Cc2ccccc2)cc1OC | inconclusive: 39.8 µM [cytotoxic, single point] | –
CCOc1ccccc1CN1CCn2c(nnc2[C@@H]2C[C@@H](O)CN2Cc2cccnc2)C1 | – | inactive: 0.623% [at 12.5 µM]
COc1ccc(-c2nc3cnc(N4CCOCC4)nc3n(CCC#N)c2=O)cc1 | inconclusive: 3.16 µM [rising, full curve, poor fit] | –
CCOc1ccc(NC(=O)C(Cc2ccccc2)NS(=O)(=O)c2ccc3c(c2)oc(=O)n3C)cc1 (centres undefined) | inconclusive: 2.82 µM [rising, full curve, poor fit] | –
Cc1ccc(-n2c(=O)c3sc4ccccc4c3n(CC(=O)NC3CCCC3)c2=O)cc1C | inconclusive: 0.891 µM [cytotoxic, full curve, poor fit] | –
COc1ccc(-c2nc(CN3CCOC(CN)C3)c(C)o2)c2ccccc12 (centres undefined) | inconclusive: 22.4 µM [cytotoxic, single point] | –
COc1ccc(CN2C(=O)C(NC(=O)c3cccc(C)c3)(C(F)(F)F)N=C2c2ccccc2)cc1 (centres undefined) | inconclusive: 35.5 µM [cytotoxic, single point] | –
CN(C(=O)c1ccc2c(c1)N(Cc1cccc(Cl)c1)C(=O)c1ccccc1S2(=O)=O)C1CCCCC1 | inconclusive: 10 µM [cytotoxic, partial curve] | –
COc1ccccc1-c1ccc(C(=O)N2CCCC[C@H](N(C)C)C2)cc1 | inconclusive: 39.8 µM [cytotoxic, single point] | –
Cc1ccc(CN2CCC(CNC(=O)c3cnn(-c4ccccc4Cl)c3C3CCN(C(=O)OC(C)(C)C)CC3)CC2)cc1 | inconclusive: 31.6 µM [cytotoxic, single point] | –
CNC(=O)CNC(=O)c1cccc(-c2ccc(SC)cc2)c1 | inactive | –
CC(=O)N1CCc2cc(Br)cc(S(=O)(=O)CCC(=O)N3CCN(c4ccc(F)cc4)CC3)c21 | inconclusive: 22.4 µM [rising, partial curve, poor fit] | –
COc1ccc2cc(C3CN(CCC(=O)NC(C)(C)C)CCO3)ccc2c1 (centres undefined) | inactive | –
CC(C)NC(=O)CCC1CCN(C(=O)c2ccccc2F)CC1 | inactive | –
Cc1ccc(-c2nc(CCNC(=O)c3ccc(C)c(C)c3)cs2)cc1 | inconclusive: 0.562 µM [rising, single point] | –
CN1CCN(c2ncc3nc(-c4cn(C)c5ccccc45)c(=O)n(CCc4ccccc4)c3n2)CC1 | inconclusive: 5.62 µM [rising, full curve, poor fit] | –
Cc1ccc(C2NC(=O)N(CC(=O)Nc3ccc(Br)cc3F)C3=C2C(=O)OC3)cc1 (centres undefined) | inconclusive: 39.8 µM [cytotoxic, single point] | –
COc1ccc(OC)c(CN2CCc3ncc(C(=O)Nc4ccccc4)n3CC2)c1 | inactive | –
CC1=C[C@@H](CNC(=O)NC(C)C)[C@H](C(C)C)C[C@H]1Cc1nnc(-c2ccccc2F)o1 | inconclusive: 39.8 µM [cytotoxic, single point] | –
